This is an account of results in publication PMC10991392.

Protein sequences, listed by entry. Tags and fused reporters are not part of them. Lines headed by an entry give the natural chain unless they say otherwise; changes in a name come on top. Chains listed by the source or under a name are the forms on record and can include a tag or linker.
UniProt Q12778: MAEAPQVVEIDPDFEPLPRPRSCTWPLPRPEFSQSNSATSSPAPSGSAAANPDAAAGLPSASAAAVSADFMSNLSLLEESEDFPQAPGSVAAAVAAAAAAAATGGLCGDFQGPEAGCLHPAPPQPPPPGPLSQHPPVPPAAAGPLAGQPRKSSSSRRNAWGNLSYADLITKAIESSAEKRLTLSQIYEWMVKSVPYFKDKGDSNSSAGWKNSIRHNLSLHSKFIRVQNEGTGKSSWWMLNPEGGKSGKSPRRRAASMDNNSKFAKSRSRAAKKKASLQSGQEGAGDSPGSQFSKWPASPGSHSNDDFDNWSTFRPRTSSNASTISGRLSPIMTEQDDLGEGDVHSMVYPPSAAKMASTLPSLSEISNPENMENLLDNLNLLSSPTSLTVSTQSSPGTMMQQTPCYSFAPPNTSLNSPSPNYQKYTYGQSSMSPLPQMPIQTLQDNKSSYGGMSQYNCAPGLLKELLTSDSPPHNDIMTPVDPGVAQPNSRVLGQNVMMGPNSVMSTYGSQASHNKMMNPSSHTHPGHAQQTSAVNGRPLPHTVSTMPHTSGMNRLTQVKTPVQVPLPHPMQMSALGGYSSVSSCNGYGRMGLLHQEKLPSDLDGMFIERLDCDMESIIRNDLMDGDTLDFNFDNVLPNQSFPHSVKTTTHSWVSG
FLAG-tagged FOXO1-minus NLS/NES (Q12778, form named): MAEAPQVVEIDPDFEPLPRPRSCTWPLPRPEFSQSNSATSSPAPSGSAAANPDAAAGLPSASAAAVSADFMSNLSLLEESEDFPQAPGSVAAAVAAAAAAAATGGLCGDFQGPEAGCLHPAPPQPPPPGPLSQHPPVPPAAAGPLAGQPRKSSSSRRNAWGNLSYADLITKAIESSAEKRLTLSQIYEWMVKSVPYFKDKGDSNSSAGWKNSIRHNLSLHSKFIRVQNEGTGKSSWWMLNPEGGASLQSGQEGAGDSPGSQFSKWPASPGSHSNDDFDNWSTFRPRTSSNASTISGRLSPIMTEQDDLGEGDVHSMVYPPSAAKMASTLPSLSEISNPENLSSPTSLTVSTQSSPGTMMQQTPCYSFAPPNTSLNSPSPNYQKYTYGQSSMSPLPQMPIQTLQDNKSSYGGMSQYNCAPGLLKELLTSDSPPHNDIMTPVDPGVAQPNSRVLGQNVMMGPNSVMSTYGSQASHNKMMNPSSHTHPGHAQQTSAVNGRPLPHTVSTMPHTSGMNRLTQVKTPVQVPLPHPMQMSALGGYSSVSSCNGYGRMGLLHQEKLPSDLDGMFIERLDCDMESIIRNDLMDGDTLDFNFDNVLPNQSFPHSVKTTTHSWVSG
UniProt O14980: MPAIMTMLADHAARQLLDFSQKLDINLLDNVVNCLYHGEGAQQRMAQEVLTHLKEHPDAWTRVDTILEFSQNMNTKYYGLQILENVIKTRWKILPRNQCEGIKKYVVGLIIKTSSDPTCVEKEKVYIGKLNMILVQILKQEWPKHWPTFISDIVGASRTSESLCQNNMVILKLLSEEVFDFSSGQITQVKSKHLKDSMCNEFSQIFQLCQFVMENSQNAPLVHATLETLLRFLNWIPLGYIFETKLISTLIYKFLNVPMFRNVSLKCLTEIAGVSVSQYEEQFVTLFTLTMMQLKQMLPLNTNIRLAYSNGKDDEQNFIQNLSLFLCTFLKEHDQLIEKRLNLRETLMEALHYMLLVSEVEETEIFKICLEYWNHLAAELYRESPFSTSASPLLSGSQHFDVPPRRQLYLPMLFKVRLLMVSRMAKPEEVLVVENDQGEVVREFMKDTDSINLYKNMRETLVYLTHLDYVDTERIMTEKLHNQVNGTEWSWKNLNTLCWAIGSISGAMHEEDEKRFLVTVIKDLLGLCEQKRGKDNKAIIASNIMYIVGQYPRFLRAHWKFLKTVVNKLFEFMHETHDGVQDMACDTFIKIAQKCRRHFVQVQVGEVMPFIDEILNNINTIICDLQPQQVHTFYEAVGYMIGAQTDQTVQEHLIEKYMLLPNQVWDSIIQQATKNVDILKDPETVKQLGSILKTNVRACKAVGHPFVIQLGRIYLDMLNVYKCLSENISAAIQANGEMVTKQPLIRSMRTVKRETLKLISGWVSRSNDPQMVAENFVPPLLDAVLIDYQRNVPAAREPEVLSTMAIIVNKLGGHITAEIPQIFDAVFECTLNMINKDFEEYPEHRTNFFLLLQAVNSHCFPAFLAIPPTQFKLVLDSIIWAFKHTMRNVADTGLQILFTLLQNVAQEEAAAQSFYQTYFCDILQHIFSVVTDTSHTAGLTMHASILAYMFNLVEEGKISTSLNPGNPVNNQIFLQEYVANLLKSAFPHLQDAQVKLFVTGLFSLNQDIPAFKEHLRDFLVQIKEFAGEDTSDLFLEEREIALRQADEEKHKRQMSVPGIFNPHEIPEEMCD

These are yes or no findings as the source states them, for the method shown. Binding seen in cells or lysates may run through a third protein. Some binding calls cover weakened binding; strength is not graded here.

The target of experiment [1] is FLAG-tagged FOXO1 (UniProt Q12778). Nature of the experiment: proximity ligation; PLA in ARPE-19(WT) cells overexpressing FLAG-tagged FOXO1 or FOXO1-minus NLS/NES, at 37 °C and 4 °C; with XPO1 or IPO7.
Experiment [2] has as its target FLAG-tagged FOXO1-minus NLS/NES (UniProt Q12778). The experiment is described as above.
Experiment [3] concerns the target forkhead box O1 (FOXO1) (human (endogenous in H1 ESCs and ARPE-19)) (UniProt Q12778). Nature of the experiment: co-IP; FOXO1 immunoprecipitated from ARPE-19(WT) and ARPE-19(FOXO1-minus SIM) cell extracts at annotated temperatures; blots for XPO1, IPO7 and FOXO1.
For experiment [4] the target is unchanged. Put plainly: co-IP; FOXO1 immunoprecipitated from H1 cell extracts (cells at 37 °C or 4 °C); blots for XPO1, IPO7 and FOXO1.
The target is the same in experiment [5]. Nature of the experiment: proximity ligation; PLA kit (DUO92101, Sigma-Aldrich) on fixed, permeabilised H1 ESCs kept at 37 °C or exposed to 4 °C; endogenous proteins; puncta per cell counted.
Experiment [6] shares this target. Nature of the experiment: proximity ligation; PLA in ARPE-19(WT) and ARPE-19(FOXO1-minus SIM) cells at 37 °C; FOXO1 with endogenous XPO1 or with overexpressed HA-tagged XPO1 K752R/K957R.

Regarding “Exportin-1 (XPO1) (from UniProt O14980 1-1071)”, the binding result in experiment [1], in experiment [2], in experiment [3], in experiment [4], in experiment [5] and in experiment [6] was “binds” in each case.

In the case of “HA-tagged XPO1 with both SUMOylation sites replaced with an arginine residue (K752R and K957R) (from UniProt O14980 1-1071)”, the binding entry in experiment [6] is reported as “no binding”.
